Reference: publication PMC12136788
The list shows a part of the results.

T1: UNK ZnF1-3 (human, UniProt Q9C0B0 31-174)
T1 sequence: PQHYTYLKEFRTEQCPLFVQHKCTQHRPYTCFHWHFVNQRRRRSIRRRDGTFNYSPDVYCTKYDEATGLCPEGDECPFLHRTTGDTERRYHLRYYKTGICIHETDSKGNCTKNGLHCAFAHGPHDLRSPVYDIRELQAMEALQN

B1: chr2:125499325:125499326:+_ENSMUSG00000091337_ENSMUST00000164756|mus_hu|motif|central (ssRNA)
RNA: GGGAGUUCUACAGUCCGACGAUCGAGUUCUUCGGUCAGACGAUUGACAACCAUCAGUGAAAAAAGCUCUUCGAUAAAAGCGGACUGAUCAAACGGGGUCUUCUCAUAAUGCAUCUGAAACCCGCCAUCCAGGGCUGGUUCUCUCAACAGAGGAUUGAGCAUCA
B2: chr19:16212804:16212805:+_ENSG00000167460_ENST00000300933|hu_mus|hu_hu_hu_mus_False|48_108 (ssRNA)
RNA: GGGAGUUCUACAGUCCGACGAUCAACAAAUAUGCAAUGAAGGAAAGAUGUAACAUGGAACAGCAUUAAAGCUCAGUCAGAAGGCACGUGGGUAAUUAUGAUCACCCCAGCAUUCUCGCUUGGAAUGCUUAAAGACAAUCUGUUCAACAGAGGAUUGAGCAUCA
B3: chr14:66974463:66974464:+_ENSMUSG00000022044_ENSMUST00000074523|mus_hu|mus_mus_mus_hu_False|8_108 (ssRNA)
RNA: GGGAGUUCUACAGUCCGACGAUCUUGUAGGAUGAUUUAUUCAGGGGAUCGGCCAGGAAGCAGGAGCAGAACAAGGACACCAGCGGGAGCUCCUUCAUCUUCUCUUUGUAGGCAGCAAGGGUCAUGUUGGCUGGAAUUGGUGGCCAACAGAGGAUUGAGCAUCA
B4: chr6:114281168:114281169:-_ENSG00000196591_ENST00000368632|hu_hu|hu_hu_hu_mus_True|68_108 (ssRNA)
RNA: GGGAGUUCUACAGUCCGACGAUCUUCCAUUUUUCUGUAUAAACCAUAAUUUAGCAGCAAGUUAUGAGUCAUGCGGAUUCUAUGAGGCUUCAUGGGAUGACCCUGGCCAUAAUAAUAAUUGCCAAUAUCACCAUCAUAGUAGUACAACAGAGGAUUGAGCAUCA
B5: chr5:46091440:46091441:-_ENSMUSG00000015882_ENSMUST00000045586|mus_mus|FALSE|FALSE (ssRNA)
RNA: GGGAGUUCUACAGUCCGACGAUCGAUAACUUUACCACAAUGGGUAAUUUCUCUUCCUAAAUUUUUCUAUGUAGGAACACUAUUUUAUGAAUGAAUUCUAGAUUAGGGUGCUGCCCACACACACAUUAAUCAUGAAAGAUACAUCAACAGAGGAUUGAGCAUCA
B6: chr10:85912055:85912056:+_ENSG00000165678_ENST00000372134|hu_hu|FALSE|FALSE (ssRNA)
RNA: GGGAGUUCUACAGUCCGACGAUCUGAGUCACUUCAUUUCUUUCUGUUGCCUCCAGUUGCCAGCAUAGUUGCAACUCGCAUAAAUAUAUUUAAUGUAUCCAUGUAGAUACUCAGCAUCGAGUUAAUGGGAUCAUAUUUUUGAACCAACAGAGGAUUGAGCAUCA
B7: 54841893_54842013_1751_CDS_ENSG00000102316_ENST00000375058|human|control|control (ssRNA)
RNA: GGGAGUUCUACAGUCCGACGAUCGGCACCAGCACUGAAGCCACCACUGGUGCUGGCACUGGCACUGGCACUGUUAUUGGUACUGGUACUGGCACCAGUGCUGGCACUGCCACUCUCUUGGGCUUUGGCUUUAGCUUCUGCUCCCAACAGAGGAUUGAGCAUCA
B8: chrX:11616105:11616106:-_ENSMUSG00000040363_ENSMUST00000043441|mus_mus|FALSE|FALSE (ssRNA)
RNA: GGGAGUUCUACAGUCCGACGAUCGAUGUUAUAACACGGCAAGAGGGAGCUUUCAGCAAACUCAAACUCAAACAAAUCGCUAUAGGUAUCCUCUUCCUCAUCUGGGUCUUCUGGUCCUGGGGGAUUAGCCAAAACAUCGUACCCCAACAGAGGAUUGAGCAUCA
B9: chr18:211299:211300:+_ENSG00000101557_ENST00000383589|hu_hu|motif|central (ssRNA)
RNA: GGGAGUUCUACAGUCCGACGAUCUCUGGAUUAUAGAAAUGAUCAACAAAUAACAUUUAUUUUCACAUCUAAGCAUAAAUACGGAAAUGAAGAUUACUGUUCACUUUCCUCUUCCAUUAUUUCAACUCUGCGAGGCCCAUAGAGCAACAGAGGAUUGAGCAUCA
B10: chr10:70182154:70182155:-_ENSG00000138346_ENST00000358410|hu_hu|FALSE|FALSE (ssRNA)
RNA: GGGAGUUCUACAGUCCGACGAUCUAGGUUUAUCACUGCAUUGGCCACUUUGUCUGAUCCACACUCCAGCUUGCCCUCAUAGGUCAGCUUAUUACUUAAGGACAUAAUUUUACUGUUCAUUCUGUACUGCACGGUUAACUGUACCAACAGAGGAUUGAGCAUCA
B11: chr8:121872745:121872746:+_ENSMUSG00000031839_ENSMUST00000034300|mus_hu|FALSE|FALSE (ssRNA)
RNA: GGGAGUUCUACAGUCCGACGAUCCUUUGUGGUGACAAUCAUAUGGAUCACCUUCCAGGUCAUCAGUAUUGGCCUCUAGGUUUAGCACUCCUGGCACUGCAUUUUUGAGUGGCCAGAGAUAAAGGUAUUAUCCCUGUCUUCUAUCAACAGAGGAUUGAGCAUCA
B12: chr12:49580477:49580478:-_ENSG00000167552_ENST00000550767|hu_mus|FALSE|FALSE (ssRNA)
RNA: GGGAGUUCUACAGUCCGACGAUCCACUGCCCGGGGCACAUGCUUGCCAGCUCCUGUCUCACUGAAGAAGGUGUUGAAGGAGUCAUCUCCUCCCCCAAUGGUCUUGUCACUUGGCAUCUGGCCAUCAGGCUGGAUGCCAUGUUCCAACAGAGGAUUGAGCAUCA
B13: chr1:163117127:163117128:-_ENSG00000143248_ENST00000313961|hu_mus|hu_hu_hu_mus_False|48_98 (ssRNA)
RNA: GGGAGUUCUACAGUCCGACGAUCUGCUACAAAGGAUGGAGGAAAUAUCACAGGGCAACUUUUGGAAGCCUGACCAGAUGACUACUUGAUUAACUCCUUAUAAAAUUCAGAGCGCACAAAGCGGGGCAGAGAAUCCUUCUCCAUCAACAGAGGAUUGAGCAUCA
B14: chr14:34206250:34206251:-_ENSMUSG00000021936_ENSMUST00000111945|mus_mus|motif|central (ssRNA)
RNA: GGGAGUUCUACAGUCCGACGAUCUGCAGUCCUCGCCAGUCCAAAAUCAAGAAUCUUCAAAGUGCAGUCUGAUUUGACGGCGGUAUUACUAGGCUUUAAGUCCCGAUGAAUAAUUCCAGCAGAGUGAAGGUGCUUGAUUCCACACAACAGAGGAUUGAGCAUCA
B15: chr4:99338562:99338563:+_ENSG00000138698_ENST00000453712|hu_hu|FALSE|FALSE (ssRNA)
RNA: GGGAGUUCUACAGUCCGACGAUCUCCAGCAAGCUGUAGCUGGUGGUUAUUUGAUGGGAUCCAAGAGAGUACCCUUUGAAAUACACUACCUUUUCCUCCUUCAAAUAACUUCUGCAUGGAUUCAUCUCCAAGAAGUAAUAAAACCAACAGAGGAUUGAGCAUCA
B16: chr2:217001844:217001845:+_ENSG00000079246_ENST00000392132|hu_hu|hu_hu_hu_mus_False|18_58 (ssRNA)
RNA: GGGAGUUCUACAGUCCGACGAUCACCAACUUGAGGAUUAGAUCUUUUGUCAUAAGCAUAUCGGACGAUGGCGACCAUGUCUAAGUCAUCCAAAGCAUGAACGAGAGAGGAAAGGGCAACUGCAGCUGCCUCAUCAUCCUUUGCCAACAGAGGAUUGAGCAUCA
B17: chr3:167401952:167401953:-_ENSG00000114209_ENST00000497056|hu_mus|FALSE|FALSE (ssRNA)
RNA: GGGAGUUCUACAGUCCGACGAUCAAAAGAAUGAUAAUAGCAAAAGUGAUGCAAAAUCUUCAUUGUGAGAUUAUGAUUAAGCUACAUUUUACAAAAAUAUGGUGUAAGAUGGCAAUAAUCCCAUUCAACAUCCUGGAUUAGGUCCAACAGAGGAUUGAGCAUCA
B18: 153988690_153988810_1802_3pUTR_ENSMUSG00000046873_ENSMUST00000058098|mouse|control|control (ssRNA)
RNA: GGGAGUUCUACAGUCCGACGAUCUACUCCCUCUACUACAGAGUUUUUGGGUUCUCUAGAUAUUAGGAGCUCAAAGAGGUUGGCCAAGGUGUUUUAAGGAAACACUUUACAUUUCAUAACUAGUAAGAAUUUCAAUGGCAACAGCAACAGAGGAUUGAGCAUCA
B19: 145862194_145863126_1941_CDS_ENSG00000113649_ENST00000394421|human|control|control (ssRNA)
RNA: GGGAGUUCUACAGUCCGACGAUCCUCCCACGUUGAAAAAGCAGACACCCCUCUCUCUAGCAGCAUGUCCUUGAACUGCUUCAUUCGAGCCUCCAGAGGGACAAUGGCCCUUUCUCGGGCAGCUUUAAUUUCAGCUUCCAUGGCCAACAGAGGAUUGAGCAUCA
B20: chr2:44436386:44436387:+_ENSG00000138032_ENST00000378551|hu_mus|motif|central (ssRNA)
RNA: GGGAGUUCUACAGUCCGACGAUCCUCUGAAUCUCUCUUCACGGCUUCCUCUGAGACCUUGGGGGCAUUUGAAAAGCAAACGGAUACAACACUCAUGUUAUCUCGACUUCCCUUAUGUAAACAAGUGUCCACUACCCAAUUGCACAACAGAGGAUUGAGCAUCA
B21: 80185158_80186710_2278_CDS_ENSMUSG00000027006_ENSMUST00000028392|mouse|control|control (ssRNA)
RNA: GGGAGUUCUACAGUCCGACGAUCUUGGCAGUCCACACUGCCUACAUUGAUCAGUCCAGUUAACGUCCGGGCCAUGCGUUUCCAUUCUGGCAUCAAGACCUGACAGGGAUGACACCAUGGAGAAUAGAAAUCGACCAUCCAGACCAACAGAGGAUUGAGCAUCA
B22: chr7:97319096:97319097:+_ENSMUSG00000039361_ENSMUST00000049537|mus_hu|FALSE|FALSE (ssRNA)
RNA: GGGAGUUCUACAGUCCGACGAUCAUCUUUGAACAGGAGCAUGAAGGCAGCAUUUAUUACCCCAUUUGUAAGUUCAUUGCUAUUAACAUUAAAAUCAAGAAGUGCAUCCAUCUGAUUCUGAAUAAUUGGUACAGUUUUUAGGAGCAACAGAGGAUUGAGCAUCA

target: T1, UNK ZnF1-3; experiment: nsRBNS (natural sequence RNA bind-n-seq); RBNS binding buffer (assumed for nsRBNS): 25 mM Tris pH 7.5, 150 mM KCl, 3 mM MgCl2, 0.01% Triton X-100, 500 ug/ml BSA, 20 U/ml SUPERase-In, 4 C; UNK is unkempt and MSI1 is Musashi-1; names of the RNAs are library labels; protein concentration not given here; high values mean tight binding

Row | Binder | binding signal [enrichment R]
1 | B1 | 0.801
2 | B2 | 0.968
3 | B3 | 2.51
4 | B4 | 1.17
5 | B5 | 0.531
6 | B6 | 1.03
7 | B7 | 0.504
8 | B8 | 1.3
9 | B9 | 1.05
10 | B10 | 0.728
11 | B11 | 0.481
12 | B12 | 0.673
13 | B13 | 2.19
14 | B14 | 1.04
15 | B15 | 0.885
16 | B16 | 1.7
17 | B17 | 0.761
18 | B18 | 1.4
19 | B19 | 1.38
20 | B20 | 0.898
21 | B21 | 0.328
22 | B22 | 1.42
